Laboratory results from the supplement of paper PMC8728848.
Some of the results follow.

Experiments:
Assay in all cases: glycan array binding signal (z-score within array); higher = stronger binding
Conditions in all cases: glycan notation: IUPAC condensed, linker removed
[1] = molecular target: Neu5Ac(a2-6)Gal(b1-4)GlcNAc(b1-3)Gal(b1-4)GlcNAc(b1-3)GalNAc
Method in brief: (§1)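 Glycan array data were curated from 3228 arrays in the Consortium for Functional Glycomics database and kept only where the protein sequence was available. Glycan names were converted to IUPAC-condensed notation, and columns mapping to the same glycan were averaged. The binding signal is a within-array Z-score, averaged across arrays of the same protein sequence at different concentrations or buffers and across linkers. Negative Z-scores can be read as non-binding.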

[2] = molecular target: Neu5Ac(a2-6)Gal(b1-4)GlcNAc(b1-3)Gal(b1-4)GlcNAc(b1-3)[Neu5Ac(a2-6)Gal(b1-4)GlcNAc(b1-3)Gal(b1-4)GlcNAc(b1-6)]GalNAc
Method in brief: as §1

[3] = molecular target: Neu5Ac(a2-6)Gal(b1-4)GlcNAc(b1-3)Gal(b1-4)GlcNAc(b1-6)[Gal(b1-3)]GalNAc
Method in brief: as §1

[4] = molecular target: Neu5Ac(a2-6)Gal(b1-4)GlcNAc(b1-3)Gal(b1-4)[Fuc(a1-3)]GlcNAc(b1-3)Gal(b1-4)[Fuc(a1-3)]GlcNAc
Method in brief: as §1

[5] = molecular target: Neu5Ac(a2-6)Gal(b1-4)GlcNAc(b1-3)GalNAc
Method in brief: as §1

[6] = molecular target: Neu5Ac(a2-6)Gal(b1-4)GlcNAc(b1-3)[Neu5Ac(a2-6)Gal(b1-4)GlcNAc(b1-6)]GalNAc
Method in brief: as §1

[7] = molecular target: Neu5Ac(a2-6)Gal(b1-4)GlcNAc(b1-6)GalNAc
Method in brief: as §1

[8] = molecular target: Neu5Ac(a2-6)Gal(b1-4)GlcNAc(b1-6)[Gal(b1-3)GlcNAc(b1-3)]Gal(b1-4)Glc
Method in brief: as §1

[9] = molecular target: Neu5Ac(a2-6)Gal(b1-4)GlcNAc(b1-6)[Gal(b1-3)]GalNAc
Method in brief: as §1

[10] = molecular target: Neu5Ac(a2-6)Gal(b1-4)GlcNAc6S
Method in brief: as §1

Neu5Ac(a2-6)GalNAc = molecular target: Neu5Ac(a2-6)GalNAc
Method in brief: as §1

[11] = molecular target: Neu5Ac(a2-6)GalNAc(b1-4)GlcNAc
Method in brief: as §1

[12] = molecular target: Neu5Ac(a2-6)GalNAc(b1-4)GlcNAc6S
Method in brief: as §1

[13] = molecular target: Neu5Ac(a2-6)GlcNAc(b1-4)GlcNAc
Method in brief: as §1

[14] = molecular target: Neu5Ac(a2-6)GlcNAc(b1-4)GlcNAc(b1-4)GlcNAc
Method in brief: as §1

Neu5Ac(a2-8)Neu5Ac = molecular target: Neu5Ac(a2-8)Neu5Ac
Method in brief: as §1

[15] = molecular target: Neu5Ac(a2-8)Neu5Ac(a2-3)Gal(b1-3)GalNAc(b1-4)[Neu5Ac(a2-3)]Gal(b1-4)Glc
Method in brief: as §1

[16] = molecular target: Neu5Ac(a2-8)Neu5Ac(a2-3)Gal(b1-3)GalNAc(b1-4)[Neu5Ac(a2-8)Neu5Ac(a2-3)]Gal(b1-4)Glc
Method in brief: as §1

[17] = molecular target: Neu5Ac(a2-8)Neu5Ac(a2-3)Gal(b1-4)Glc
Method in brief: as §1

[18] = molecular target: Neu5Ac(a2-8)Neu5Ac(a2-3)Gal(b1-4)GlcNAc
Method in brief: as §1

[19] = molecular target: Neu5Ac(a2-8)Neu5Ac(a2-3)[Gal(b1-3)GalNAc(b1-4)]Gal(b1-4)Glc
Method in brief: as §1

[20] = molecular target: Neu5Ac(a2-8)Neu5Ac(a2-3)[GalNAc(b1-4)]Gal(b1-4)Glc
Method in brief: as §1

[21] = molecular target: Neu5Ac(a2-8)Neu5Ac(a2-8)Neu5Ac
Method in brief: as §1

[22] = molecular target: Neu5Ac(a2-8)Neu5Ac(a2-8)Neu5Ac(a2-3)Gal(b1-4)Glc
Method in brief: as §1

[23] = molecular target: Neu5Ac(a2-8)Neu5Ac(a2-8)Neu5Ac(a2-3)[Gal(b1-3)GalNAc(b1-4)]Gal(b1-4)Glc
Method in brief: as §1

[24] = molecular target: Neu5Ac(a2-8)Neu5Ac(a2-8)Neu5Ac(a2-3)[GalNAc(b1-4)]Gal(b1-4)Glc
Method in brief: as §1

[25] = molecular target: Neu5Ac(a2-8)Neu5Ac(a2-8)Neu5Ac(a2-8)Neu5Ac(a2-3)[GalNAc(b1-4)]Gal(b1-4)Glc
Method in brief: as §1

[26] = molecular target: Neu5Ac(a2-8)Neu5Gc(a2-3)Gal(b1-4)GlcNAc
Method in brief: as §1

[27] = molecular target: Neu5Ac(b2-6)Gal(b1-4)GlcNAc
Method in brief: as §1

Neu5Ac(b2-6)GalNAc = molecular target: Neu5Ac(b2-6)GalNAc
Method in brief: as §1

[28] = molecular target: Neu5Ac9Ac(a2-3)Gal(b1-3)GlcNAc
Method in brief: as §1

[29] = molecular target: Neu5Ac9Ac(a2-3)Gal(b1-4)GlcNAc
Method in brief: as §1

[30] = molecular target: Neu5Ac9Ac(a2-6)Gal(b1-4)GlcNAc
Method in brief: as §1

[31] = molecular target: Neu5Gc(a2-3)Gal(b1-3)GlcNAc
Method in brief: as §1

[32] = molecular target: Neu5Gc(a2-3)Gal(b1-3)[Fuc(a1-4)]GlcNAc
Method in brief: as §1

Neu5Gc(a2-3)Gal(b1-4)Glc = molecular target: Neu5Gc(a2-3)Gal(b1-4)Glc
Method in brief: as §1

[33] = molecular target: Neu5Gc(a2-3)Gal(b1-4)GlcNAc
Method in brief: as §1

[34] = molecular target: Neu5Gc(a2-3)Gal(b1-4)GlcNAc(b1-3)Gal(b1-4)GlcNAc(b1-2)Man(a1-3)[Neu5Gc(a2-3)Gal(b1-4)GlcNAc(b1-3)Gal(b1-4)GlcNAc(b1-2)Man(a1-6)]Man(b1-4)GlcNAc(b1-4)GlcNAc
Method in brief: as §1

[35] = molecular target: Neu5Gc(a2-3)Gal(b1-4)[Fuc(a1-3)]GlcNAc
Method in brief: as §1

[36] = molecular target: Neu5Gc(a2-6)Gal(b1-4)GlcNAc
Method in brief: as §1

Neu5Gc(a2-6)GalNAc = molecular target: Neu5Gc(a2-6)GalNAc
Method in brief: as §1

[37] = molecular target: Neu5Gc(a2-8)Neu5Ac(a2-3)Gal(b1-4)GlcNAc
Method in brief: as §1

[38] = molecular target: Neu5Gc(a2-8)Neu5Gc(a2-3)Gal(b1-4)GlcNAc
Method in brief: as §1

[39] = molecular target: Neu5Gc(a2-8)Neu5Gc(a2-3)Gal(b1-4)GlcNAc(b1-3)Gal(b1-4)GlcNAc
Method in brief: as §1

[40] = molecular target: Neu5Gc(a2-8)Neu5Gc(a2-6)Gal(b1-4)GlcNAc
Method in brief: as §1

[41] = molecular target: Neu5Gc(b2-6)Gal(b1-4)GlcNAc
Method in brief: as §1

B1: Nc3LysM (protein)
chain: QFTVPPDTTAEPNTIKTCTWWHVAGSGDSCTSIASTYGITSEQFARWDMETTDSPKNPSVATACKLTVGNSYCIENNFGQDDPPTPSISSSTLIGTATTSTTASTTTGNGISTPTPIQEGMETATTTTSSGNGITTPTPTQAGMETVGNCDRFHLVKSGDQCGTIASTYGITLANFYSWNPAVGTSCQSLWLDTYVCVRTIGFVPPKTTTTTTKKPTSTTSAGGVATPTPTQPGMETVSGCKKFHKGRGNVSTVASGDQCGTIATRYGISLANFYSWNPAVGSSCQTLWLDYYVCVGR
- glycan array binding signal (z-score) [1]: -0.242
- glycan array binding signal (z-score) [2]: 0.111
- glycan array binding signal (z-score) [3]: -0.099
- glycan array binding signal (z-score) [4]: -0.175
- glycan array binding signal (z-score) [5]: -0.141
- glycan array binding signal (z-score) [6]: -0.01
- glycan array binding signal (z-score) [7]: 0.198
- glycan array binding signal (z-score) [8]: 0.065
- glycan array binding signal (z-score) [9]: 0.063
- glycan array binding signal (z-score) [10]: -0.183
- glycan array binding signal (z-score) (Neu5Ac(a2-6)GalNAc): 0.071
- glycan array binding signal (z-score) [11]: -0.056
- glycan array binding signal (z-score) [12]: -0.194
- glycan array binding signal (z-score) [13]: -0.086
- glycan array binding signal (z-score) [14]: -0.143
- glycan array binding signal (z-score) (Neu5Ac(a2-8)Neu5Ac): -0.235
- glycan array binding signal (z-score) [15]: 0.043
- glycan array binding signal (z-score) [16]: -0.231
- glycan array binding signal (z-score) [17]: -0.346
- glycan array binding signal (z-score) [18]: 0.015
- glycan array binding signal (z-score) [19]: -0.137
- glycan array binding signal (z-score) [20]: -0.148
- glycan array binding signal (z-score) [21]: -0.093
- glycan array binding signal (z-score) [22]: -0.139
- glycan array binding signal (z-score) [23]: 0.394
- glycan array binding signal (z-score) [24]: -0.059
- glycan array binding signal (z-score) [25]: 0.029
- glycan array binding signal (z-score) [26]: -0.138
- glycan array binding signal (z-score) [27]: -0.191
- glycan array binding signal (z-score) (Neu5Ac(b2-6)GalNAc): -0.031
- glycan array binding signal (z-score) [28]: -0.247
- glycan array binding signal (z-score) [29]: 0.103
- glycan array binding signal (z-score) [30]: -0.13
- glycan array binding signal (z-score) [31]: 0.134
- glycan array binding signal (z-score) [32]: -0.068
- glycan array binding signal (z-score) (Neu5Gc(a2-3)Gal(b1-4)Glc): -0.021
- glycan array binding signal (z-score) [33]: -0.072
- glycan array binding signal (z-score) [34]: -0.107
- glycan array binding signal (z-score) [35]: -0.048
- glycan array binding signal (z-score) [36]: -0.16
- glycan array binding signal (z-score) (Neu5Gc(a2-6)GalNAc): -0.071
- glycan array binding signal (z-score) [37]: -0.183
- glycan array binding signal (z-score) [38]: 0.045
- glycan array binding signal (z-score) [39]: -0.146
- glycan array binding signal (z-score) [40]: -0.131
- glycan array binding signal (z-score) [41]: -0.195
